ETS1 binding intensity data for 62 sequences are collected here from the supplement of paper PMC10681739.

Over roughly 4,100 sequences, “arbitrary fluorescence units” has its median near 780; the highest 2% begin near 22,000. This is one part of the list.

The target in this assay is T1, ETS1 (UniProt P14921).
T1 sequence: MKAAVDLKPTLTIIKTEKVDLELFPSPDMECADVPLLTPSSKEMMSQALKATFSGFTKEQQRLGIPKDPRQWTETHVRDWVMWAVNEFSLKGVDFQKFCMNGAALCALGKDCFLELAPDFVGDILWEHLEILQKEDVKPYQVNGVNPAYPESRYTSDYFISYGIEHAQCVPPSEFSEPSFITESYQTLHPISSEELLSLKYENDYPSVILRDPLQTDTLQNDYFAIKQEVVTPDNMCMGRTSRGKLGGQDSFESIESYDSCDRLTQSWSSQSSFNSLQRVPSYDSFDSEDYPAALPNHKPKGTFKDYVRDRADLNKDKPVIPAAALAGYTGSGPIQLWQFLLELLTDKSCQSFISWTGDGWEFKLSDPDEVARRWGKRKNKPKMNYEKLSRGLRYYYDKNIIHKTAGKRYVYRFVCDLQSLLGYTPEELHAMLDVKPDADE
The assay is described as follows: ETS1 binding intensity (PBM fluorescence), ETS1 alone (arbitrary fluorescence units); higher = stronger binding. The following applies: ETS1 concentration 1 nM; RUNX1 concentration 0 nM. A digest of the protocol:
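Full-length recombinant human ETS1 (1 nM, no RUNX1) was incubated, per standard PBM protocols, on double-stranded Agilent 4 × 180k arrays of 36-bp genomic probes whose RUNX1 partner site was mutated. Bound ETS1 was detected with anti-ETS1 antibody (Cell Signaling Technology 14069) and Alexa488-conjugated secondary antibody, then scanned on a GenePix 4400A. Binding level is spot fluorescence intensity, summarised over replicate spots (four printed per sequence) and not normalised.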
In turn, AGCGACAGCGGATGCTCTCTGGCCGTAACATTCTTT showed an ETS1 binding intensity of 1480. For ATAGACCCAGCCCGTCCGGTAACCGTGCTCCTCGAT the value was 454. For CCCCGTTACGCCCATCCGGCTCCCGAATAGGGCGTC the value was 2610; for AAGGGCCAGGAAGGGTGGAGTCTTTTCGGGGTGAGA, 406; for AGCGTCCGGTCGCGCCGCGCTCTAGCACCCCAGCAC, 11900. For GAGACGTGTGATAATTACTGTTTTCCAGGAAGTGGC the value was 495; for GGAGAGTTGACTTCCGGCGGCTTGGGGGAGTGCTGG, 21100; for ACTCTTCGGCCCAGCTGCTTCTGTGCACAGGAAATA, 743. Turning to ACTACACTTCCCGGCAGGGACAGCGGCCCAGCGTAC, the ETS1 binding intensity amounted to 2100. For GTGTACGGAAGCTGAGAGGGCCCGAGGGTAGGCATG the value was 521; for TTCAATCACAGGAAACAGACGTCACCCTCAGACCTA, 1570; for GAAAAAAATGAGCTTCCTTTAACCAGAACTGTATTA, 1110. In the case of ATCGGAAACCAGTGAGCTCATTAGAATCCGCTTATC it was 438; in that of AGTTGTGAAACCCCAAAACACAGAAAGGAAGTGGTC, 527. In the case of GGACCGGAAGTAGGTTTCTACCCGAGCGCATTTTAC it was 27600. Turning to GCTGTTTATTTCCGTGCCTGCTGCTGGAGCTTCTTA, the ETS1 binding intensity amounted to 2670.

Consider TTCTCATCCGGCCGGCTTGCTTTCCCCTGCAGTCGT, for which the ETS1 binding intensity amounted to 4670.

Turning to TGGTACCCCAAAGCGGCGGCAGGAGGGATGTTTCTG, the ETS1 binding intensity is 386. In the case of TCCATCCTGATTCTCTCGGACTTTTCACCCGCCCGG it was 1910; in that of CCCACCCAGGAAGCCGTCCTAACTACAACAGCCCTC, 876. As for AAACCAGAGGAAGTGGATTCCAACTACAAACCTCAC, the ETS1 binding intensity was found to be 1830. In the case of CGGCGCGGCGGACGTTGCTGCCGTAGGACGTGCCCG it was 361; in that of GGCCAAAGCACTTTATCGTGGAGCCAATTTCCTCAG, 369.

TAAAATCGTTTCCCGACTCGCTCTTCGGCCCCACGC returned an ETS1 binding intensity of 577. For ACCCCAAGCCCATAAACCCACCGGAAGGAACCAACT the value was 1500; for GAACGGTGTGTCCACGAGAGTCTAGAGGAAACCAAC, 336; for TTGGTAAATCTTTTCCTGTGCTGCAGGCCCTTGTCC, 1340. In the case of AGCAACAACAAAGGAAGTGGCGGCCGCTGGGGGAGG it was 1540.

For TATTCATGACATCCTGTCGGGCTTGTAGGCTGCGTA, the ETS1 binding intensity came to 10900. CTGGAGCCCTCAACAACTCCGGGCGGAAGCAGCAGG showed an ETS1 binding intensity of 660. In the case of GACAAAGCGGCGGCAGGAGGGATGTTTCTGCACTGG it was 365; in that of GACCACTTCCTTTCTGTGTTTTGGGGTTTCACAACT, 11900; in that of AAGATGCCCCCTTCCGCTGGAAAGCGGCAATGCCCA, 2320.

CTGCATGACGTGTGATTTTCATCTTCCGCAGGCGTG returned an ETS1 binding intensity of 411. As for GCACTTCCGGAGCCGGGCGTCTACAGGCCGAGGCCA, the ETS1 binding intensity worked out at 28500. TCTACATCCTGCAGTTCTCCATTGGGGCCATTAGGT had an ETS1 binding intensity of 7570. For the sequence TCCTATATACTTCCGTTTGCCTCGCGGATTCTTTCT, the ETS1 binding intensity stood at 8300.

Sequence GCGCTACCGGTTTCCGAGACGCGACGACACAACCAA yielded an ETS1 binding intensity of 2520.

GGGGACGAATCGGTCTCGGTTCCGCCCGGCTGGGAG: the ETS1 binding intensity was 362. In the case of ACGTCAGCATCCGCCGGGCTCGCGATAAGGTGTGAG it was 4150; in that of GCTCGCAGCCCCAAGAGGTGGCCTTCGGTTCCGGGG, 382; in that of GATCTCTTCCCCAGGAAGGGTGTGGACTAGGGCCTG, 389. Consider CCAGCCTCACCCGCCCTCACTTCCGCTGACCCGCCC, for which the ETS1 binding intensity stood at 3710. For TGCTTCCCGTCCGTGTCGCGGCCCTGGGGTTGGCGG the value was 8550; for AGAGGAAATCACACTCTCACTGGGGTTCTCGCAGCT, 447; for CGAACTCCCGTCCGGCCGCGCCTGCAGCCCGCCGCC, 687. In the case of TCATGCTGCTTCCTGCCCAACCAGCAGTTCCGATAA it was 8650. Consider AGCGGCGGCGGCCGGGCCGGGAGGATGTGTGTGTGC, for which the ETS1 binding intensity was 408. For the sequence GCAGGGCCAGCGGCGCTCGCGGAAGTGCCACGGTGC, the ETS1 binding intensity came out at 387. In the case of TTGAGGGTCCACCTCTGCGCTTCTCCTTCCTGATCA it was 314; in that of GGGCGCCCGCGATTTAGAAACTACATTTCCCATGAG, 376. In the case of GAGGCAGGCGGATGTCAGTGTCGTTAGAGCACAGTG it was 2340. In the case of GCCCTTCTTGCGATTTTCATGGCAGGATGTTAACAT it was 689; in that of AAGGAGGCTACAAGGCCCAACGCAGGAAGTGAAACC, 707; in that of CTCCCGCCACGGCGCGCCCGCGCTCCGGAAAGGCGG, 354.

Sequence GATTCCTGAACAGCGGGGAAGGAAGTCCCTGTGAGG came in with an ETS1 binding intensity of 517.

In turn, TCCCAGCAAGCACCTCAGCTGGCGCGCGGAAAACCC had an ETS1 binding intensity of 315. For ACACTGGCCGGAAGGGGCGGGACAGCGAGTTAAGAG the value was 3370.

Take GCAGGAAACGCTTTCTTAACACTATGAGGGTGAGGT: the ETS1 binding intensity came to 755. ACTCCCACCGAAGGCCCCACTACGGACCGGAAGTCA showed an ETS1 binding intensity of 4260. Sequence ACCGGAAGGGCGGGGGCGTGGCGAGGTACCTCAGAC came in with an ETS1 binding intensity of 1410. In the case of CTTTGTGACTTTTTCTTGGTAGTTGGGCAGGAAGCC it was 476.
